Experimental data from PubChem BioAssay (Tox21).
“And” between values parts separate entries of the source, which are not always exact repeats. Equal entries are not always repeated. Inconclusive results, whose numbers are uncertain, are shown with a selection of clear calls. For part of these data: Where the call is inconclusive, the potency comes from a doubtful curve fit. The source made the active and inactive calls. Unless noted, calls come from the whole dose curve; as a rule, active = well fitted curve in the direction sought with a large enough effect in the repeat runs; inconclusive = weak or mixed curves; inactive = no such curve, though single readings can be large; an effect the other way counts as inactive or inconclusive.

Tests used:
[1] = biological target: Estrogen receptor (Homo sapiens) (UniProt P03372); experiment: qHTS assay to identify small molecule agonists of the estrogen receptor alpha (ER-alpha) signaling pathway using the BG1 cell line (AID 743079); conditions: BG1Luc4E2 cells, ERE-luciferase agonist, 22 h; activation: at 70.3 µM (top of the series) unless noted; note: nearly all actives have a fitted effect of over 20% in size; note: potency is the fitted concentration of half-maximal effect
[2] = qHTS assay to identify small molecule agonists of the peroxisome proliferator-activated receptor delta (PPARd) signaling pathway - cell viability counter screen (AID 743211); conditions: PPARd-bla HEK293H viability, CellTiter-Glo luminescence, 17 h; activity change, negative = cytotoxicity: at 62.6 µM (top of the series); note: nearly all actives have a fitted effect of over 55% in size; note: potency is the fitted concentration of half-maximal effect; for activity change, negative = cytotoxicity: % is set by controls: 0 for no effect and ±100 for the full control effect
Method in brief: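 PPARd-bla HEK293H cells (3000/well) were pre-incubated 5 h at 37 C, then exposed to compound for 17 h at 37 C. After 2 h with LiveBLAzer substrate, CellTiter-Glo was added to the same wells; luminescence read after 30 min at room temperature.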

[3] = biological target: Peroxisome proliferator-activated receptor delta (Homo sapiens) (UniProt Q03181); experiment: qHTS assay to identify small molecule antagonists of the peroxisome proliferator-activated receptor delta (PPARd) signaling pathway (AID 743215; active = well fitted inhibition curve with a large enough effect in the signal ratio in the repeat runs, not every such curve was filed as active; inconclusive = weak or mixed curves, or effect the other way; inactive = no such curve, though single readings can be large or run the other way; the % refers to the signal ratio;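 note: cells stimulated with agonist L165041 at 300 nM final during compound exposure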; note: potency is the fitted concentration of half-maximal effect; for ratio activity, negative = inhibition: % is set by controls: 0 for no effect and ±100 for the full control effect); conditions: HEK293H PPARd-UAS-bla, beta-lactamase FRET ratio, antagonist, 17 h; ratio activity, negative = inhibition: at 62 µM (top of the series) unless noted
Method in brief: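 PPARd-bla HEK293H cells (UAS-bla reporter) preincubated 5 h, then given compound plus 300 nM final L165041 agonist for 17 h at 37 C. Beta-lactamase activity read by LiveBLAzer B/G FRET substrate fluorescence after 2 h at room temperature.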

[4] = A CellTox Green Cytotoxicity Assay to monitor cytotoxicity in HEK293 cells - 40 hour (AID 1224871); note: potency is the fitted concentration of half-maximal effect; nearly all actives have a fitted effect of over 45% in size
Method in brief: (§1)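 HEK293 cells, 600/well, were preincubated 5 hours and then exposed to compounds at 37 C for up to 40 hours. A cell-impermeant cyanine dye staining dead-cell DNA was read by fluorescence at 0, 8, 16, 24, 32 and 40 h time points.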

[5] = A CellTox Green Cytotoxicity Assay to monitor cytotoxicity in HEK293 cells - 32 hour (AID 1224881); note: nearly all actives have a fitted effect of over 40% in size; note: potency is the fitted concentration of half-maximal effect
Method in brief: as §1

[6] = Caspase-3/7 induction in CHO-K1 cells by small molecules, qHTS cell viability counter screen (AID 1346979); note: nearly all actives have a fitted effect of over 35% in size; note: potency is the fitted concentration of half-maximal effect; for activity change, negative = cytotoxicity: % is set by controls: 0 for no effect and ±100 for the full control effect
Method in brief: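 Wild-type CHO-K1 cells (1,500/well) treated with compound after 5 h plating; after 16 h at 37C, viability read as CellTiter-Fluor fluorescence following 1 h reagent incubation, in the same wells as the caspase read.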

[7] = qHTS assay to identify small molecule agonists of the estrogen receptor beta (ER-beta) signaling pathway - cell viability counter screen (AID 1259380); note: nearly all actives have a fitted effect of over 30% in size; note: potency is the fitted concentration of half-maximal effect; for activity change, negative = cytotoxicity: % is set by controls: 0 for no effect and ±100 for the full control effect
Method in brief: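 ER-beta-UAS-bla HEK293T cells in medium with 2% charcoal-stripped FBS, pre-incubated 6 hr, then treated 16 hr at 37C. Cytotoxicity read in the same wells by CellTiter-Glo luminescence after 30 min at room temperature.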

[8] = biological target: Progesterone receptor (Homo sapiens) (UniProt P06401); experiment: qHTS assay to identify small molecule agonists of the progesterone receptor (PR) signaling pathway (AID 1346784; calls by dose curve; note: nearly all actives have a fitted effect of over 30% in size; note: potency is the fitted concentration of half-maximal effect); conditions: PR-UAS-bla HEK293T, beta-lactamase FRET ratio, 16 h; activation: at 92.4 µM (top of the series) unless noted
Method in brief: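 PR-UAS-bla HEK 293T cells (beta-lactamase reporter under UAS) in 2% charcoal-stripped FBS, dosed with 23 nL compound after 6 hr, incubated 16hr at 37C. LiveBLAzer B/G FRET substrate added, fluorescence read after 2 hours.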

[9] = biological target: Peroxisome proliferator-activated receptor gamma (Homo sapiens) (UniProt P37231); experiment: qHTS assay to identify small molecule agonists of the peroxisome proliferator-activated receptor gamma (PPARg) signaling pathway (AID 743094; active = well fitted activation curve with a large enough effect in the signal ratio in the repeat runs, not every such curve was filed as active; inconclusive = weak or mixed curves, or effect the other way; inactive = no such curve, though single readings can be large or run the other way; the % refers to the signal ratio; note: potency is the fitted concentration of half-maximal effect); conditions: HEK293H PPARg-UAS-bla, beta-lactamase FRET ratio, 17 h; activation: at 57 µM (top of the series) unless noted
Method in brief: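 GeneBLAzer PPARg UAS-bla HEK293H cells were plated, rested 5 h, then exposed to compounds for 17 h at 37C. Beta-lactamase activity was read by LiveBLAzer B/G FRET substrate fluorescence after 1 h at room temperature.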

[10] = qHTS assay for identifying genotoxic compounds that show differential cytotoxicity against isogenic chicken DT40 cell lines with known DNA damage response pathways - wild type cell line (AID 743012); conditions: DT40 wild type chicken cells viability, CellTiter-Glo, 40 h; activity change, negative = cytotoxicity: at 68.4 µM (top of the series) unless noted; note: potency is the fitted concentration of half-maximal effect; nearly all actives have a fitted effect of over 60% in size
Method in brief: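 Wild-type DT40 cells (300/well) exposed to compounds for 40 hours at 37 C/5% CO2. Viability read by CellTiter-Glo luminescence after 30 min at room temperature.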

[11] = qHTS assay to identify small molecule antagonists of the peroxisome proliferator-activated receptor gamma (PPARg) signaling pathway - cell viability counter screen (AID 743194); conditions: PPARg-bla HEK293H viability, CellTiter-Glo luminescence, 17 h; Potency: co-treated with 50 nM rosiglitazone unless noted; activity change, negative = cytotoxicity: at 62.6 µM (top of the series), co-treated with 50 nM rosiglitazone unless noted; note: potency is the fitted concentration of half-maximal effect; nearly all actives have a fitted effect of over 55% in size
Method in brief: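 Cytotoxicity counter screen in PPARg-bla HEK293H cells, same wells as reporter assay. Compounds plus 50 nM rosiglitazone (final) for 17 h at 37 C, then viability read by CellTiter-Glo luminescence.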

[12] = qHTS assay to identify small molecule antagonists of the retinoic acid receptor (RAR) signaling pathway (AID 1159552; note: nearly all actives have a fitted effect of over 50% in size; note: potency is the fitted concentration of half-maximal effect)
Method in brief: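 Retinol signaling pathway inhibitors screened in C3RL4 RARE-luciferase reporter cells seeded overnight at 37 C, then compounds added with 1 uM (final) retinol as pathway substrate. After 6 hr at 37 C, luciferase luminescence read after 30 min at room temperature.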

[13] = qHTS assay to identify small molecule agonists of H2AX (AID 1224845; active = well fitted activation curve with a large enough effect in the signal ratio in the repeat runs, not every such curve was filed as active; inconclusive = weak or mixed curves; the % refers to the signal ratio; note: potency is the fitted concentration of half-maximal effect); conditions: CHO-K1 phospho-H2AX Ser139 HTRF, 3 h; activation (H2AX phosphorylation): at 154 µM (top of the series) unless noted
Method in brief: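 Wild-type CHO-K1 cells, plated overnight, exposed 3hr at 37C to 15 concentrations (0.76% DMSO final). Lysed, then HTRF anti-pH2AX (S139) cryptate and anti-H2AX-d2 antibodies, 24 hr room temperature; 665/620 nm emission read.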

[14] = qHTS assay to identify small molecule agonists of H2AX - cell viability counter screen (AID 1224847; calls by dose curve; note: potency is the fitted concentration of half-maximal effect; nearly all actives have a fitted effect of over 30% in size)
Method in brief: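 CHO-K1 cells plated overnight at 37C, then exposed 3 h at 37C to compounds at 15 concentrations (0.76% DMSO final). Viability by CellTiter-Glo luminescence after 30 min at room temperature.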

[15] = qHTS RealTime-Glo MT Cell Viability Assay in HEK293 cells - 24 hour (AID 1224886); note: top concentration of the series differs between compounds; % is set by controls: 0 for no effect and ±100 for the full control effect; nearly all actives have a fitted effect of over 50% in size
Method in brief: (§2)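 Cells + reagent dispensed (600 cells/well, HEK293) → 5 h at 37 C/5% CO2 → 23 nL compound in DMSO pinned → 40 h at 37 C → luminescence read at 0, 8, 16, 24, 32, 40 h.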

[16] = qHTS assay for identifying genotoxic compounds that show differential cytotoxicity against isogenic chicken DT40 cell lines with known DNA damage response pathways - Rad54/Ku70 mutant cell line (AID 743015); conditions: DT40 Rad54/Ku70 mutant viability, CellTiter-Glo, 40 h; activity change, negative = cytotoxicity: at 66.8 µM (top of the series); note: potency is the fitted concentration of half-maximal effect; nearly all actives have a fitted effect of over 60% in size
[17] = qHTS assay to identify small molecule antagonists of the estrogen receptor alpha (ER-alpha) signaling pathway - cell viability counter screen (AID 743074; calls by dose curve;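 note: HEK293 cells carrying ER-alpha-UAS-bla reporter stimulated with 17beta-estradiol; nearly all actives have a fitted effect of over 45% in size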; note: potency is the fitted concentration of half-maximal effect)
[18] = qHTS RealTime-Glo MT Cell Viability Assay in HEK293 cells - 32 hour (AID 1224868); note: potency is the fitted concentration of half-maximal effect; nearly all actives have a fitted effect of over 50% in size
Method in brief: as §2

[19] = biological target: Estrogen receptor beta (Homo sapiens) (UniProt Q92731); experiment: qHTS assay to identify small molecule agonists of the estrogen receptor beta (ER-beta) signaling pathway (AID 1259377; active = well fitted activation curve with a large enough effect in the signal ratio in the repeat runs, not every such curve was filed as active; inconclusive = weak or mixed curves, or effect the other way; the % refers to the signal ratio; note: potency is the fitted concentration of half-maximal effect); conditions: ER-beta-UAS-bla HEK293T, beta-lactamase FRET ratio, 16 h; activation: at 92.4 µM (top of the series) unless noted
Method in brief: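 ER-beta-UAS-bla HEK293T cells in medium with 2% charcoal-stripped FBS were exposed to compounds for 16 h at 37C. Beta-lactamase reporter activity was read as fluorescence after 2 h with LiveBLAzer B/G FRET substrate at room temperature.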
Tags give direction and shape of the fitted curve or compound fluorescence and quenching.

Sequence of UniProt Q03181 (Q03181 whole entry, looked up): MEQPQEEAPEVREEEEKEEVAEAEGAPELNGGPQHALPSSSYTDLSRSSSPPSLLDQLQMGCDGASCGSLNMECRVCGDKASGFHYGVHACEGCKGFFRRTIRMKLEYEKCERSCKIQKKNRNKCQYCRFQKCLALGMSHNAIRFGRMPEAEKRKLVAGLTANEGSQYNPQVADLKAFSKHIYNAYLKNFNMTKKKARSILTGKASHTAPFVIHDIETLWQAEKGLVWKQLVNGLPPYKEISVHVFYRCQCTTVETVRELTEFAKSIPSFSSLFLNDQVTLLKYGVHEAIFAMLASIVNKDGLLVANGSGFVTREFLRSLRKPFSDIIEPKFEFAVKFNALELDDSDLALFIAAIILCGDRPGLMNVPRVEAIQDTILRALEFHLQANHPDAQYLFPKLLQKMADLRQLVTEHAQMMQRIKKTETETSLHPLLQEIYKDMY
Sequence of UniProt P03372 (P03372 whole entry, looked up): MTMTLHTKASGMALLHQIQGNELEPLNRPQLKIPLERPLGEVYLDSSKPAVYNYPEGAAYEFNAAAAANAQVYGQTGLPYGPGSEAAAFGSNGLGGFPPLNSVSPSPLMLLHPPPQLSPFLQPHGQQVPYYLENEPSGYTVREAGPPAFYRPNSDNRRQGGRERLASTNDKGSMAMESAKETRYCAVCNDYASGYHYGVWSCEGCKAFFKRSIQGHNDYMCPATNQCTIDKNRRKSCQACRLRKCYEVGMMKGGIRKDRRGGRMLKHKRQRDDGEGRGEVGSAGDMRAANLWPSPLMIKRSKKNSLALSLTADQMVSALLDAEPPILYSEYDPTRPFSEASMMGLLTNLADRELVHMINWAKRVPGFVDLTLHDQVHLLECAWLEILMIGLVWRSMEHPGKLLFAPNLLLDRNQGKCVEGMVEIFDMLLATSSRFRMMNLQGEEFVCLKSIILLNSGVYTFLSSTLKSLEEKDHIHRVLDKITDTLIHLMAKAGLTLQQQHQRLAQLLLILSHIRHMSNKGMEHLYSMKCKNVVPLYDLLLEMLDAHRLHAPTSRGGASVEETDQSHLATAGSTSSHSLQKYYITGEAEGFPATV
Sequence of UniProt Q92731 (Q92731 whole entry, looked up): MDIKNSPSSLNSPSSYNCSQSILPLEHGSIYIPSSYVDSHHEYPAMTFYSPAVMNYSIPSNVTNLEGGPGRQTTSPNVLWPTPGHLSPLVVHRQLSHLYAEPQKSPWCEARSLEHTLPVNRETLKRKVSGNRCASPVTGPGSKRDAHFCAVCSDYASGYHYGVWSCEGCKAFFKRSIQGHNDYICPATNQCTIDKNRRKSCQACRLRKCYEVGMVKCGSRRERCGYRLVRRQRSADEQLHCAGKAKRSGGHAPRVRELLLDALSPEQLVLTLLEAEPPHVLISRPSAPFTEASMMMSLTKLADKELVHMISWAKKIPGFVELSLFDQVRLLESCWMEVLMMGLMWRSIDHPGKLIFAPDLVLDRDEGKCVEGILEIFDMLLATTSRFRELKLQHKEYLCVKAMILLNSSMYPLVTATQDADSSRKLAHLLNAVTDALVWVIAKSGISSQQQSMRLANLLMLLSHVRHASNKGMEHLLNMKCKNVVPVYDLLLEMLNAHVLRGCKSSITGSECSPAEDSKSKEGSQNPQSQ
Sequence of UniProt P06401 (P06401 whole entry, looked up): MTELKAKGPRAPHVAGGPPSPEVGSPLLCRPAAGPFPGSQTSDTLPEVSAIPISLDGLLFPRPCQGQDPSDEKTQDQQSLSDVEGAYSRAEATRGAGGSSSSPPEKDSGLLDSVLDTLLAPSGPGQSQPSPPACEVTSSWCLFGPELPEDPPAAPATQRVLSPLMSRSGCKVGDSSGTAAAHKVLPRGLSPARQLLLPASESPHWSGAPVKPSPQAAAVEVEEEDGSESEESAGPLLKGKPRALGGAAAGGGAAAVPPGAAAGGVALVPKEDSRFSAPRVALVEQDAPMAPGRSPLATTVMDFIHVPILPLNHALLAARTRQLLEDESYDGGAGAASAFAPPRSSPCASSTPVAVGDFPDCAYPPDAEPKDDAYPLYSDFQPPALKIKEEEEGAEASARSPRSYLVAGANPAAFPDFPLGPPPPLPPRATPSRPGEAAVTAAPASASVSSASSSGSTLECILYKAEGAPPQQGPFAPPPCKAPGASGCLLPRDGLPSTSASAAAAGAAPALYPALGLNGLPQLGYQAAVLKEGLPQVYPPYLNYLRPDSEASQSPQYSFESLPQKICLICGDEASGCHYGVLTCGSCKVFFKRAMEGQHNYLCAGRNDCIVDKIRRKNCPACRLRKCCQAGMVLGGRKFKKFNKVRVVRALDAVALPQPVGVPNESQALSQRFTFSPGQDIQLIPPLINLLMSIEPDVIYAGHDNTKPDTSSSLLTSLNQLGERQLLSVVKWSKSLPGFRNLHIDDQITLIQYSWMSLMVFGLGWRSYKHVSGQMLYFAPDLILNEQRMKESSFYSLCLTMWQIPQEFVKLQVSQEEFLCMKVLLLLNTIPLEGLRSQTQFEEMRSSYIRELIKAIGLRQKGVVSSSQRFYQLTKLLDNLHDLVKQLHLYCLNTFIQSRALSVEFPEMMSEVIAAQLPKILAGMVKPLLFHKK
Sequence of UniProt P37231 (P37231 whole entry, looked up): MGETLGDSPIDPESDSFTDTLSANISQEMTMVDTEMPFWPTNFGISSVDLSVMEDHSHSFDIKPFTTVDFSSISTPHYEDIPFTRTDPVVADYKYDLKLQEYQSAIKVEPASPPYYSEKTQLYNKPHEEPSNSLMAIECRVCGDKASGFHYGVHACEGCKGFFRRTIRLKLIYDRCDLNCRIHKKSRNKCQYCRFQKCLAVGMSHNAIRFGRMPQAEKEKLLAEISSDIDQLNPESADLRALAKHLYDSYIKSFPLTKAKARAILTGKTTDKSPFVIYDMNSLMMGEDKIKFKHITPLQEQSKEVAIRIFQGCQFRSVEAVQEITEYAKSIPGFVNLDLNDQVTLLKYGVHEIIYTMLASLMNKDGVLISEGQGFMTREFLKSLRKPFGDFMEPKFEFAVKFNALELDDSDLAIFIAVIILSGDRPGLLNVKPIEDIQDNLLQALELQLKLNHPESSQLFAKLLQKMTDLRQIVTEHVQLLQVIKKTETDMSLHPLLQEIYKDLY

Q: Which results are given for CCSC(=O)N(CC)C1CCCCC1?
A: Potency [1]: inconclusive: 30.6 µM [activator, partial curve, poor fit]; Potency [2]: inactive; Potency [3]: inactive; Potency [4]: inconclusive: 49 µM [activator, single point]; Potency [5]: inconclusive: 54.9 µM [activator, partial curve, poor fit]; Potency [6]: inactive

Q: With CC(CC(C(N)=O)(c1ccccc1)c1ccccc1)N(C)C (stereo not given) as the compound, how does the Potency [7] read?
A: The Potency was “inactive”.

Q: And the Potency [8]?
A: The Potency was “inactive”.

Q: Which results are given for Cc1nnc2n1-c1sc(CCC(=O)N3CCOCC3)cc1C(c1ccccc1Cl)=NC2?
A: Potency [9]: inconclusive: 23.9 µM [fluorescent, partial curve, poor fit]; ratio activity, negative = inhibition [3]: inconclusive: 10.2%; Potency [8]: inconclusive: 10.6 µM [rising, single point]

Q: Which Potency [3] does the source give for CCCOC(=O)c1cncn1C(C)c1ccccc1 (stereo not given) here?
A: Its Potency is “inactive”.

Q: And the Potency [5]?
A: Its Potency is “inactive”.

Q: With CCOC(=O)/C=C(C)/C=C/C[C@@H](C)CCCC(C)C as the compound, how does the Potency [10] read?
A: The Potency was inconclusive: 29.8 µM [rising, partial curve, poor fit].

Q: What about the Potency [11] of the same compound?
A: The Potency was inconclusive: 61.6 µM [cytotoxic, single point].

Q: What about the Potency [2] of the same compound?
A: The Potency was inconclusive: 24.5 µM [cytotoxic, partial curve, poor fit].

Q: And the ratio activity, negative = inhibition [3]?
A: Its ratio activity, negative = inhibition is inconclusive: -53%.

Q: And the Potency [12]?
A: The Potency was inconclusive: 15.4 µM [inhibitor, partial curve, poor fit].

Q: What about the Potency [13] of the same compound?
A: The Potency was active: 113 µM.

Q: What about the Potency [14] of the same compound?
A: Its Potency is inconclusive: 113 µM [cytotoxic, partial curve].

Q: What about the Potency [7] of the same compound?
A: Its Potency is active: 43.3 µM.

Q: And the Potency [6]?
A: Its Potency is inconclusive: 68.6 µM [cytotoxic, single point].

Q: Which results are given for ClC(Cl)C(Cl)(Cl)Cl?
A: Potency [15]: inactive; Potency [7]: inactive

Q: With CC1=C(C(=O)O)N2C(=O)[C@@H](N)[C@H]2SC1 as the compound, how does the cytotoxicity increase [5] read?
A: The cytotoxicity increase was inactive: -10.4% [at 15.8 µM].

Q: For CN1[C@@H]2CC[C@H]1CC(O)C2 (stereo not given in full), which Potency [9] is on record?
A: The Potency was “inactive”.

Q: And the Potency [12]?
A: Its Potency is “inactive”.

Q: With C[C@]12CC[C@H]3[C@@H](CCC4=CC(=O)CC[C@@H]43)[C@@H]1CC[C@@H]2O as the compound, how does the Potency [10] read?
A: The Potency was inconclusive: 21.1 µM [cytotoxic, partial curve] and inconclusive: 68 µM [cytotoxic, single point].

Q: And the Potency [16]?
A: Its Potency is inconclusive: 26.6 µM [cytotoxic, single point] and inconclusive: 33.5 µM [cytotoxic, single point] and inconclusive: 68 µM [cytotoxic].

Q: What about the Potency [17] of the same compound?
A: The Potency was “inactive and inconclusive: 8.49 µM [cytotoxic, partial curve]”.

Q: And the Potency [1]?
A: Its Potency is active: 106 nM and active: 59.6 nM and active: 108 nM.

Q: What about the Potency [3] of the same compound?
A: The Potency was inconclusive: 21.7 µM [fluorescent, single point] and inactive.

Q: What about the Potency [13] of the same compound?
A: The Potency was active: 99.8 µM.

Q: And the Potency [14]?
A: The Potency was inconclusive: 126 µM [cytotoxic, single point].

Q: And the Potency [18]?
A: The Potency was inconclusive: 30.6 µM [cytotoxic, partial curve, poor fit].

Q: What about the Potency [19] of the same compound?
A: Its Potency is active: 540 nM and active: 4.22 µM.

Q: What about the Potency [7] of the same compound?
A: The Potency was “inactive”.

Q: And the Potency [8]?
A: Its Potency is inconclusive: 27.1 nM [falling, full curve] and inconclusive: 133 nM [falling, full curve].

Q: What about the Potency [6] of the same compound?
A: Its Potency is inconclusive: 76.3 µM [cytotoxic, single point].

Q: Which results are given for COCC(=O)N(c1c(C)cccc1C)C(C)C(=O)OC (stereo not given)?
A: Potency [16]: inconclusive: 54.4 µM [cytotoxic, partial curve]; Potency [2]: inactive; Potency [19]: inactive; Potency [7]: inactive

Q: For [O-][Br+2]([O-])O, which Potency [15] is on record?
A: Its Potency is “inactive”.

Q: For CCNP(=S)(OC)O/C(C)=C/C(=O)OC(C)C (stereo not given), which Potency [1] is on record?
A: Its Potency is “inactive”.
